The other results are listed elsewhere or left out.
system: PfHDP1 homeodomain (GST-tagged); experiment: gcPBM binding intensity (ln(normalized median fluorescence intensity)); higher = stronger DNA binding
Outline: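 GST-tagged P. falciparum DNA-binding domains produced in E. coli were incubated for 1 h on an Agilent 4 × 180k array of primer-extended double-stranded 36-bp intergenic genomic probes with negative controls. Binding intensity is the highest Masliner-normalised natural-log median intensity across replicate spots of either probe orientation, with bound protein detected by Alexa488 anti-GST antibody at 488 nm.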

| Sequence | gcPBM binding intensity (ln) |
| --- | --- |
| AAAAAAAAAGATCACACACACATAAATATAAACAAA [CACACA_site5285] | 7.03 |
| TGATATTATTATAAGGTGCTTAAAAATAAAGATAAT [GTGCAC_site9539] | 6.49 |
| AACAAGAAATAATCACGTACACATTATAATAACTAA [XGTACX_site8184] | 6.6 |
| CTTTAATATTTTATTTCACACACATAAATGCCCCAA [CACACA_site8569] | 7.06 |
| AAAATTAAAATAGTAATACACACTTCATAGGAAATG [CACACA_site1762] | 6.02 |
| ATAATATAAACATACACACACACATATATATATATA [CACACA_site5591] | 9.26 |
| ATAAATTGTAAAATGTGTACGCAGATATTGCGTATT [XGTACX_site332] | 6.66 |
| TCTATATAATACCAATGTACATAGTTTTAAGCATAA [XGTACX_site1889] | 6.7 |
| AGGATATGCAGACACACACACATATAGATTTATATA [CACACA_site7100] | 6.6 |
| AAAACAAAAATATAAACACACATACATTGGTTTTCT [CACACA_site5405] | 6.17 |
| TTTTGTCTTCAAATCAAATGTATATAAAAAAAATAC [CACACA_negctrl_site1717] | 6.33 |
| TTTAAAAATTTGATCAAACACACGTTGCATAAATTA [CACACA_site3945] | 8.11 |
| TTTTTAACTAACATATCAATTCCATACGTCGTCAAA [CACACA_negctrl_site560] | 6.16 |
| ACTTTAATAATTCACTTATTTTCTTATTATATTATT [CACACA_negctrl_site556] | 6.78 |
| GGATTTATTTTATATACACACATACCTATATTTATA [CACACA_site7084] | 6.84 |
| AACTTGTGTGGATATTGTACTAACAATATGTATGAT [XGTACX_site6302] | 7.05 |
| AATAGTGTATAAATTTGTACATATAATTAAAAGGAA [XGTACX_site1143] | 6.67 |
| ATTCATAAAAAGAGGTGTACATTAATATAATATATA [XGTACX_site8283] | 6.61 |
| TTATTCGAACAAAGGAAAAAATATATTCAAAGGAAA [TGCATGCA_negctrl_site215] | 6.45 |
| AATAACTTTTTGAGATGTACATTTTTAATTCGTAGA [XGTACX_site8455] | 6.17 |
| TATGCTACATTATATGTACACACATATACATATATA [CACACA_site8199] | 6.93 |
| ATTTATACGTAATATGCATAAATATAAATATATATA [XGTACX_negctrl_site133] | 6.68 |

| Sequence | gcPBM binding intensity (ln) |
| --- | --- |
| TTTCTTTCTTTCTTTTTTTAAATATTTTTTAAAAAT [TGCATGCA_negctrl_site206] | 6.41 |
| TTAAAATTTTAAAAATTTTAATTTTACAAAAAAAAT [TGCATGCA_negctrl_site227] | 5.89 |
| ATATAAATAAAAAAAAAAAAAAAAAAAAAAAAAAAA [CACACA_negctrl_site972] | 6.02 |
| TATATATAACATTGTACACACAAAGAAATAATATTA [CACACA_site3035] | 6.58 |
| AAAAGTATATATTCAGTGCATAGTCTTTAAATATAA [GTGCAC_site9522] | 8.54 |
| ATAAGCATCTGGATATGTACTTATTCCTTTAAAGAT [XGTACX_site6225] | 6.24 |
| AACAAGTTGCATGGTGCACACATGTATTTATATCTA [CACACA_site5414] | 10.1 |
| TATTAAAAATATTATGTACACACATTTTAGATATTT [CACACA_site8549] | 6.41 |
| ATAAAAAAGCAACATCATATGTTTTTATAGAGTATT [CACACA_negctrl_site745] | 6.19 |
| AAATTAATGAAATATACACACATATATAAATATATA [CACACA_site4378] | 6.32 |
| AAATTAAAGATAAAAGTGCAAAATTATAAATTTATT | 7.86 |
| TTTCGCTTTATTTATGCATGCAAATAAGTTGATATT [TGCATGCA_site724] | 6.78 |
| ATTTTTGTAAATACATGTACATATATATGCATATCC [XGTACX_site6353] | 7.01 |
| TACATATATACATACACACACATATAACCAATGTAG [CACACA_site2192] | 6.94 |
| AGTAATAGTTTGTGCACACTCAAGTATATCATAGAT [CACACA_site6082] | 11.1 |
| ATATAAGTGTATCTAACACACAAATATATAAAAATG [CACACA_site1956] | 6.53 |
| ATAATTATATGGCTAGCACACAATAAATAATTATAT [CACACA_site3815] | 6.56 |
| ACAAGTTAAAATATTACACACATATAAATATTTATA [CACACA_site7467] | 6.6 |
| AAGAAAAATATTCGTGTGCACAGAAGTATATGTGTG [GTGCAC_site9814] | 11 |
| TATTGTAAGAAAGGCACACAGATAAAATTATTATAT [CACACA_site2921] | 6.76 |
| GAGTTAATTTTTTCGTGTACTTGAAAATATTTTTTT [XGTACX_site6392] | 6.78 |
| TTACCTTTTTCTAATGGTACACATAAAATATCATTT [XGTACX_site6825] | 6.08 |

| Sequence | gcPBM binding intensity (ln) |
| --- | --- |
| TTTTCTTACACGAATTTTAAATTCAATATTAAACAT [CACACA_negctrl_site286] | 6.62 |
| GTGGAAATATAACACATTTTTTTTAATAATTATATT [TGCATGCA_negctrl_site522] | 5.93 |
| TTAGCAACTATTACTACACACATTTGTATATAACTT [CACACA_site6850] | 6.83 |
| ATAGTTTTATATAAATGTACAAATGATTTCAAATAG [XGTACX_site8236] | 6.55 |
| AACATGTATATATTATGTACATATGTTAAAATGATA [XGTACX_site6217] | 6.81 |
| TAGCGGCGGTATCATGCACACGTATATATTGTAACA [CACACA_site8453] | 7.83 |
| CTTAAATTTTTAAATACACACATACACCCATACACA [CACACA_site4461] | 7.25 |
| TTTTTTTTAAATATCACACACATATAATATATTCTA [CACACA_site3668] | 6.38 |
| AAACCCTATTCAATGCAATAATTTTATAATTTTTTT [TGCATGCA_negctrl_site434] | 6.75 |
| TAAATTAATACCTATGCACACATTTTTTTTTTTAAA [CACACA_site1238] | 8.59 |
| TTTATTATAATATGTTGTACAAGACGTTTCAGTATA [XGTACX_site4486] | 6.83 |
| AAATTATCTTAATAGGATGTTCAAGGAGAAAGATGA [CACACA_negctrl_site1032] | 6.71 |
| TCTCTCATTTATTTTTGTACTTAATCCAGCACGTTT [XGTACX_site1369] | 6.61 |
| ACATATTAATTATAAAGTACATATATATATATATAT [XGTACX_site4540] | 9.08 |
| TTCATATTATAGTGCACACAAAAATATATATATGGT [CACACA_site2855] | 10.4 |
| TTGTTTGTTGTAACGTGTACAGATAAAAATAAAGGG [XGTACX_site375] | 7.43 |
| GCTTCATTTTAAACTTGTACTTATTTTTTGGTAAAT [XGTACX_site8879] | 6.98 |
| GACCCACTTTTCTGCACACATAAAAAATATATAAAT [CACACA_site4483] | 8.88 |
| TATAATAAAACTTTTACACACTTTAAAAAAAAAAAA [CACACA_site6392] | 6.05 |
| TAAAAGTAAAGACATGCATGCATTGGTATCTTTTAC [TGCATGCA_site665] | 6.23 |
| TTTATATTTAAATATATATGAGAAAACACAAAATAT [TGCATGCA_negctrl_site211] | 6.98 |
| TAATATCAATATAAAGTACACACTATAGTATGTATT [CACACA_site2280] | 6.3 |

| Sequence | gcPBM binding intensity (ln) |
| --- | --- |
| TATATATATATATATATACACACGTATATATATACA [CACACA_site4155] | 9.31 |
| ATATCTTTGCAAAGATGTACTTGTAAAAATATATGA [XGTACX_site768] | 7.88 |
| ATAATTTTTTTTTTTTTTTTTTGAAAGTAGCATATG [CACACA_negctrl_site732] | 6.14 |
| AATAATGAAGCTTATGCACACGTTCATTATTTATAT [CACACA_site5736] | 10.6 |
| TACATATTTATATACACACACACCCTAAAAATATAT [CACACA_site6861] | 7.06 |
| AAAAGAATTACTTTCACACATATATATCTGTAAATA [CACACA_site5798] | 6.24 |
| ACTACAAGGCAATACAGTACATATAAATGTCATAAT [XGTACX_site8468] | 6.37 |
| AAAAAGGTTATTGGTACACACATATGTATTTATATA [CACACA_site4464] | 6.59 |
| TACCTTTTATTAATGTGTACCTAAAATATAATACTT [XGTACX_site192] | 6.36 |
| TAACAAAACCTTATATGTACACACATATACATCACA [XGTACX_site6772] | 6.52 |
| TTAAAAATGAACATATGTACATATATATATATATAT [XGTACX_site7923] | 9.3 |
| TTATCATTTTAAATCACACACATATATATATATATA [CACACA_site2849] | 9.41 |
| CAATAATTTTTTGTGGGTACAAATAATTTTTTAAAT [XGTACX_site2407] | 5.98 |
| AGGAGAAAAGATAAAGACTTCAAGAAAAAAAAATAA [TGCATGCA_negctrl_site258] | 6.46 |
| AAAATATAAAAAGTCACACATATATATATTTATTTA [CACACA_site4872] | 6.33 |
| TTGAATGAAAAAATTTGTACTCATATAAATAATTTA [XGTACX_site4628] | 6.18 |
| TTTCATATTTTGTCCTGTTTTTTTTTTTTTTTTCTT [CACACA_negctrl_site993] | 6.18 |
| TTTTGAATATTTGGTCGTACGTAAAAATAGATAATT [XGTACX_site5755] | 6.75 |
| AAAAAAAAAAAATATACACACACACCGACACATAAA [CACACA_site9270] | 7.06 |
| GATGCTAAAATTTATACACACAAAAAAAAAAAATTC [CACACA_site3284] | 6.51 |
| TATTTTATGTAAATTGGTACACATATGTCAGTAAAA [XGTACX_site7111] | 6.67 |

Source: the supplement of paper PMC11417369
